# “And” between values parts separate entries of the source, which are not always exact repeats. Equal entries are not always repeated. Structures can show the parent of a compound that is named as a salt. The whole screen tested about 5,800 compounds, of which about 620 (11%) showed activity.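 Rule for the calls: active = score above a cut-off or among the top three wells of a plate; in these data no inactive exceeds 0.85.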 Only a part is listed here, and it is no random draw.
# Test system: primary human hepatic stellate cells (donor 1)
# Assay: scaled lipid accumulation score (0 = DMSO-like, 1 = nortriptyline-like); higher = stronger HSC inactivation (lipid re-accumulation), active = hit call of the paper
# Settings: 48 h
# [1] = library stock concentration: 10 mM
# [2] = library stock concentration: 3.33 mM
# [3] = library stock concentration: 400 uM
# [4] = library stock concentration: 80 uM
# [5] = library stock concentration: 2 mM
# [6] = library stock concentration: 7.2 mM
compound,measurement,setting,value
CC(=O)OCC[N+](C)(C)C [Acetylcholine],scaled lipid accumulation score,[1],inactive: ≤ 0
same,scaled lipid accumulation score,library stock concentration: 11 mM,inactive: 0.016
CC(=O)OCC[N+](C)(C)C [Miochol],scaled lipid accumulation score,[1],inactive: ≤ 0
CCC(=O)NC1CCc2cccc(OC)c2C1 (stereo unspecified),scaled lipid accumulation score,[1],inactive: 0.006
COc1ccccc1OCCNCC(O)COc1cccc2[nH]c3ccccc3c12 (stereo unspecified) [Carvedilol],scaled lipid accumulation score,[1],active: 0.936
CC(C)(O)C1CCC(C)(C2C(O)CC3(C)C4CC(OC5OC(CO)C(O)C(O)C5O)C5C(C)(C)C(OC6OCC(O)C(O)C6O)CCC56CC46CCC23C)O1 (stereo unspecified) [Astragaloside A],scaled lipid accumulation score,[2],inactive: 0.019
same,scaled lipid accumulation score,[1],inactive: ≤ 0
OCCN1C[C@H](O)[C@@H](O)[C@H](O)[C@H]1CO [Miglitol],scaled lipid accumulation score,[2],inactive: 0.017
same,scaled lipid accumulation score,library stock concentration: 9.7 mM,inactive: ≤ 0
same,scaled lipid accumulation score,[1],inactive: ≤ 0 and inactive: 0.163
OCCN1C[C@H](O)[C@@H](O)[C@H](O)[C@H]1CO,scaled lipid accumulation score,[1],inactive: ≤ 0
S=C(NCc1ccc2c(c1)OCO2)N1CCN(c2ncnc3c2oc2ccccc23)CC1 [Amuvatinib  (MP-470) (0.4 mM)],scaled lipid accumulation score,[3],inactive: 0.042
S=C(NCc1ccc2c(c1)OCO2)N1CCN(c2ncnc3c2oc2ccccc23)CC1,scaled lipid accumulation score,[4],inactive: 0.069
same,scaled lipid accumulation score,[3],inactive: ≤ -0.009
same,scaled lipid accumulation score,[5],inactive: 0.025
same,scaled lipid accumulation score,[1],inactive: 0.035
S=C(NCc1ccc2c(c1)OCO2)N1CCN(c2ncnc3c2oc2ccccc23)CC1 [Amuvatinib  (MP-470) (10 mM)],scaled lipid accumulation score,[1],inactive: 0.068
S=C(NCc1ccc2c(c1)OCO2)N1CCN(c2ncnc3c2oc2ccccc23)CC1 [Amuvatinib  (MP-470) (2 mM)],scaled lipid accumulation score,[5],inactive: 0.074
S=C(NCc1ccc2c(c1)OCO2)N1CCN(c2ncnc3c2oc2ccccc23)CC1 [Amuvatinib (MP-470)],scaled lipid accumulation score,[2],inactive: 0.006
same,scaled lipid accumulation score,[1],inactive: ≤ 0
OCc1cc(C(O)CNCCCCCCOCCCCc2ccccc2)ccc1O (stereo unspecified) [Salmeterol],scaled lipid accumulation score,[1],active: 1.08
Cn1cnc([N+](=O)[O-])c1Sc1ncnc2[nH]cnc12 [Azathioprine],scaled lipid accumulation score,,inactive: ≤ 0
same,scaled lipid accumulation score,[2],inactive: ≤ 0
same,scaled lipid accumulation score,[6],inactive: ≤ -0.001
same,scaled lipid accumulation score,[1],inactive: ≤ 0 and inactive: 0.158 and inactive: 0.022
CC(=O)Oc1cc2c(s1)CCN(C(C(=O)C1CC1)c1ccccc1F)C2 (stereo unspecified) [Prasugrel],scaled lipid accumulation score,[2],inactive: ≤ 0
same,scaled lipid accumulation score,[1],inactive: ≤ 0
CC(=O)Oc1cc2c(s1)CCN(C(C(=O)C1CC1)c1ccccc1F)C2 (stereo unspecified),scaled lipid accumulation score,[1],inactive: ≤ 0
CC(C)C(=O)Nc1ccc([N+](=O)[O-])c(C(F)(F)F)c1,scaled lipid accumulation score,[1],inactive: ≤ 0
CC(C)C(=O)Nc1ccc([N+](=O)[O-])c(C(F)(F)F)c1 [Flutamide],scaled lipid accumulation score,,inactive: 0.003
same,scaled lipid accumulation score,[2],inactive: 0.003
same,scaled lipid accumulation score,[6],inactive: 0.041 and inactive: ≤ 0
same,scaled lipid accumulation score,[1],inactive: ≤ 0 and inactive: ≤ -0.07
COc1c(C=O)c(O)cc2c1C(=O)c1ccccc1C2=O [Damnacanthal],scaled lipid accumulation score,library stock concentration: 17.7 mM,inactive: ≤ -0.011
CN(C)[C@@H]1C(=O)C(C(N)=O)=C(O)[C@@]2(O)C(=O)C3=C(O)c4c(O)ccc(Cl)c4[C@@H](O)[C@H]3C[C@@H]12 [Demeclocycline HCl],scaled lipid accumulation score,[2],inactive: ≤ 0
same,scaled lipid accumulation score,[1],inactive: ≤ -0.001
CN(C)[C@@H]1C(=O)C(C(N)=O)=C(O)[C@@]2(O)C(=O)C3=C(O)c4c(O)ccc(Cl)c4[C@@H](O)[C@H]3C[C@@H]12 [Demeclocycline hydrochloride],scaled lipid accumulation score,[1],inactive: ≤ -0.03
CCCCCCN(CCCCCC)C(=O)Cc1c(-c2ccc(Cl)cc2)[nH]c2ccc(Cl)cc12,scaled lipid accumulation score,[1],inactive: ≤ 0
O=C1c2cccc3c2[C@H](CCC3)CN1[C@@H]1CN2CCC1CC2,scaled lipid accumulation score,[1],inactive: 0.359
NCC[C@H](O)C(=O)N[C@@H]1C[C@H](N)[C@@H](O[C@H]2O[C@H](CN)[C@@H](O)[C@H](O)[C@H]2O)[C@H](O)[C@H]1O[C@H]1O[C@H](CO)[C@@H](O)[C@H](N)[C@H]1O [Amikacin sulfate],scaled lipid accumulation score,library stock concentration: 2.6 mM,inactive: 0.004
same,scaled lipid accumulation score,[1],inactive: 0.02
NCC[C@H](O)C(=O)N[C@@H]1C[C@H](N)[C@@H](O[C@H]2O[C@H](CN)[C@@H](O)[C@H](O)[C@H]2O)[C@H](O)[C@H]1O[C@H]1O[C@H](CO)[C@@H](O)[C@H](N)[C@H]1O [Amikacin hydrate],scaled lipid accumulation score,,inactive: 0.046
CCC(O)/C=C/C=O (stereo unspecified) [4-hydroxy Hexenal],scaled lipid accumulation score,library stock concentration: 1 mM,inactive: ≤ 0
CC(C)CN(C[C@@H](O)[C@H](Cc1ccccc1)NC(=O)O[C@H]1CO[C@H]2OCC[C@H]21)S(=O)(=O)c1ccc(N)cc1 [Darunavir Ethanolate],scaled lipid accumulation score,[2],inactive: ≤ 0
same,scaled lipid accumulation score,[1],inactive: ≤ 0
Cc1cc2c(F)c(Oc3ncnn4cc(OC[C@@H](C)O)c(C)c34)ccc2[nH]1 [Brivanib],scaled lipid accumulation score,[4],inactive: ≤ -0.009
same,scaled lipid accumulation score,[3],inactive: ≤ -0.009
same,scaled lipid accumulation score,[5],inactive: ≤ -0.009
same,scaled lipid accumulation score,[1],inactive: ≤ -0.009
Cc1cc2c(F)c(Oc3ncnn4cc(OC[C@@H](C)O)c(C)c34)ccc2[nH]1,scaled lipid accumulation score,[2],inactive: 0.023
same,scaled lipid accumulation score,[1],inactive: ≤ 0

# From the supplement of paper PMC9135407
